# The supplement of paper PMC8728848
# The other results are listed elsewhere or left out.
# Experiments:
# Assay in all cases: glycan array binding signal (z-score within array); higher = stronger binding
# Settings in all cases: glycan notation: IUPAC condensed, linker removed
# [1] = target: Gal(b1-4)GlcNAc(b1-2)[Gal(b1-4)GlcNAc(b1-6)]Man(a1-6)[Gal(b1-4)GlcNAc(b1-2)Man(a1-3)]Man(b1-4)GlcNAc(b1-4)[Fuc(a1-6)]GlcNAc
# Outline: (§1)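 From the Consortium for Functional Glycomics database, 3228 arrays were curated, keeping only those whose protein sequence was available. Binding is given as a within-array Z-score averaged across arrays sharing a protein sequence and across linkers. Negative Z-scores can be read as non-binding.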
# [2] = target: Gal(b1-4)GlcNAc(b1-2)[Gal(b1-4)GlcNAc(b1-6)]Man(a1-6)[GlcNAc(b1-4)][Gal(b1-4)GlcNAc(b1-2)Man(a1-3)]Man(b1-4)GlcNAc(b1-4)GlcNAc
# Outline: as §1
# [3] = target: Gal(b1-4)GlcNAc(b1-2)[Gal(b1-4)GlcNAc(b1-6)]Man(a1-6)[GlcNAc(b1-4)][Gal(b1-4)GlcNAc(b1-2)[Gal(b1-4)GlcNAc(b1-4)]Man(a1-3)]Man(b1-4)GlcNAc(b1-4)[Fuc(a1-6)]GlcNAc
# Outline: as §1
# [4] = target: Gal(b1-4)GlcNAc(b1-3)Gal(b1-3)GalNAc
# Outline: as §1
# [5] = target: Gal(b1-4)GlcNAc(b1-3)Gal(b1-3)GlcNAc
# Outline: as §1
# [6] = target: Gal(b1-4)GlcNAc(b1-3)Gal(b1-4)Glc
# Outline: as §1
# [7] = target: Gal(b1-4)GlcNAc(b1-3)Gal(b1-4)GlcNAc
# Outline: as §1
# [8] = target: Gal(b1-4)GlcNAc(b1-3)Gal(b1-4)GlcNAc(b1-2)Man(a1-3)[Gal(b1-4)GlcNAc(b1-3)Gal(b1-4)GlcNAc(b1-2)Man(a1-6)]Man(b1-4)GlcNAc(b1-4)GlcNAc
# Outline: as §1
# [9] = target: Gal(b1-4)GlcNAc(b1-3)Gal(b1-4)GlcNAc(b1-2)Man(a1-3)[Gal(b1-4)GlcNAc(b1-3)Gal(b1-4)GlcNAc(b1-2)Man(a1-6)]Man(b1-4)GlcNAc(b1-4)[Fuc(a1-6)]GlcNAc
# Outline: as §1
# [10] = target: Gal(b1-4)GlcNAc(b1-3)Gal(b1-4)GlcNAc(b1-2)[Gal(b1-4)GlcNAc(b1-3)Gal(b1-4)GlcNAc(b1-6)]Man(a1-6)[Gal(b1-4)GlcNAc(b1-3)Gal(b1-4)GlcNAc(b1-2)Man(a1-3)]Man(b1-4)GlcNAc(b1-4)GlcNAc
# Outline: as §1
# [11] = target: Gal(b1-4)GlcNAc(b1-3)Gal(b1-4)GlcNAc(b1-2)[Gal(b1-4)GlcNAc(b1-3)Gal(b1-4)GlcNAc(b1-6)]Man(a1-6)[Gal(b1-4)GlcNAc(b1-3)Gal(b1-4)GlcNAc(b1-2)Man(a1-3)]Man(b1-4)GlcNAc(b1-4)[Fuc(a1-6)]GlcNAc
# Outline: as §1
# [12] = target: Gal(b1-4)GlcNAc(b1-3)Gal(b1-4)GlcNAc(b1-3)Gal(b1-4)GlcNAc
# Outline: as §1
# [13] = target: Gal(b1-4)GlcNAc(b1-3)Gal(b1-4)GlcNAc(b1-3)Gal(b1-4)GlcNAc(b1-2)Man(a1-3)[Gal(b1-4)GlcNAc(b1-3)Gal(b1-4)GlcNAc(b1-3)Gal(b1-4)GlcNAc(b1-2)Man(a1-6)]Man(b1-4)GlcNAc(b1-4)GlcNAc
# Outline: as §1
# [14] = target: Gal(b1-4)GlcNAc(b1-3)Gal(b1-4)GlcNAc(b1-3)Gal(b1-4)GlcNAc(b1-2)Man(a1-3)[Gal(b1-4)GlcNAc(b1-3)Gal(b1-4)GlcNAc(b1-3)Gal(b1-4)GlcNAc(b1-2)Man(a1-6)]Man(b1-4)GlcNAc(b1-4)[Fuc(a1-6)]GlcNAc
# Outline: as §1
# [15] = target: Gal(b1-4)GlcNAc(b1-3)Gal(b1-4)GlcNAc(b1-3)Gal(b1-4)GlcNAc(b1-2)[Gal(b1-4)GlcNAc(b1-3)Gal(b1-4)GlcNAc(b1-3)Gal(b1-4)GlcNAc(b1-6)]Man(a1-6)[Gal(b1-4)GlcNAc(b1-3)Gal(b1-4)GlcNAc(b1-3)Gal(b1-4)GlcNAc(b1-2)Man(a1-3)]Man(b1-4)GlcNAc(b1-4)[Fuc(a1-6)]GlcNAc
# Outline: as §1
# [16] = target: Gal(b1-4)GlcNAc(b1-3)Gal(b1-4)GlcNAc(b1-3)Gal(b1-4)GlcNAc(b1-3)Gal(b1-4)GlcNAc(b1-2)Man(a1-3)[Gal(b1-4)GlcNAc(b1-3)Gal(b1-4)GlcNAc(b1-3)Gal(b1-4)GlcNAc(b1-3)Gal(b1-4)GlcNAc(b1-2)Man(a1-6)]Man(b1-4)GlcNAc(b1-4)GlcNAc
# Outline: as §1
# [17] = target: Gal(b1-4)GlcNAc(b1-3)Gal(b1-4)GlcNAc(b1-3)Gal(b1-4)GlcNAc(b1-3)Gal(b1-4)GlcNAc(b1-2)Man(a1-3)[Gal(b1-4)GlcNAc(b1-3)Gal(b1-4)GlcNAc(b1-3)Gal(b1-4)GlcNAc(b1-3)Gal(b1-4)GlcNAc(b1-2)Man(a1-6)]Man(b1-4)GlcNAc(b1-4)[Fuc(a1-6)]GlcNAc
# Outline: as §1
# [18] = target: Gal(b1-4)GlcNAc(b1-3)Gal(b1-4)GlcNAc(b1-3)Gal(b1-4)GlcNAc(b1-3)Gal(b1-4)GlcNAc(b1-2)[Gal(b1-4)GlcNAc(b1-3)Gal(b1-4)GlcNAc(b1-3)Gal(b1-4)GlcNAc(b1-3)Gal(b1-4)GlcNAc(b1-6)]Man(a1-6)[Gal(b1-4)GlcNAc(b1-3)Gal(b1-4)GlcNAc(b1-3)Gal(b1-4)GlcNAc(b1-3)Gal(b1-4)GlcNAc(b1-2)Man(a1-3)]Man(b1-4)GlcNAc(b1-4)[Fuc(a1-6)]GlcNAc
# Outline: as §1
# [19] = target: Gal(b1-4)GlcNAc(b1-3)Gal(b1-4)GlcNAc(b1-3)Gal(b1-4)GlcNAc(b1-3)Gal(b1-4)GlcNAc(b1-3)Gal(b1-4)GlcNAc(b1-2)Man(a1-3)[Gal(b1-4)GlcNAc(b1-3)Gal(b1-4)GlcNAc(b1-3)Gal(b1-4)GlcNAc(b1-3)Gal(b1-4)GlcNAc(b1-3)Gal(b1-4)GlcNAc(b1-2)Man(a1-6)]Man(b1-4)GlcNAc(b1-4)GlcNAc
# Outline: as §1
# [20] = target: Gal(b1-4)GlcNAc(b1-3)Gal(b1-4)GlcNAc(b1-3)Gal(b1-4)GlcNAc(b1-3)Gal(b1-4)GlcNAc(b1-3)Gal(b1-4)GlcNAc(b1-2)Man(a1-3)[Gal(b1-4)GlcNAc(b1-3)Gal(b1-4)GlcNAc(b1-3)Gal(b1-4)GlcNAc(b1-3)Gal(b1-4)GlcNAc(b1-3)Gal(b1-4)GlcNAc(b1-2)Man(a1-6)]Man(b1-4)GlcNAc(b1-4)[Fuc(a1-6)]GlcNAc
# Outline: as §1
# [21] = target: Gal(b1-4)GlcNAc(b1-3)Gal(b1-4)GlcNAc(b1-3)Gal(b1-4)GlcNAc(b1-3)Gal(b1-4)GlcNAc(b1-3)Gal(b1-4)GlcNAc(b1-2)[Gal(b1-4)GlcNAc(b1-3)Gal(b1-4)GlcNAc(b1-3)Gal(b1-4)GlcNAc(b1-3)Gal(b1-4)GlcNAc(b1-3)Gal(b1-4)GlcNAc(b1-6)]Man(a1-6)[Gal(b1-4)GlcNAc(b1-3)Gal(b1-4)GlcNAc(b1-3)Gal(b1-4)GlcNAc(b1-3)Gal(b1-4)GlcNAc(b1-3)Gal(b1-4)GlcNAc(b1-2)Man(a1-3)]Man(b1-4)GlcNAc(b1-4)[Fuc(a1-6)]GlcNAc
# Outline: as §1
# [22] = target: Gal(b1-4)GlcNAc(b1-3)Gal(b1-4)GlcNAc(b1-3)Gal(b1-4)GlcNAc(b1-3)Gal(b1-4)GlcNAc(b1-3)Gal(b1-4)GlcNAc(b1-3)Gal(b1-4)GlcNAc(b1-2)Man(a1-3)[Gal(b1-4)GlcNAc(b1-3)Gal(b1-4)GlcNAc(b1-3)Gal(b1-4)GlcNAc(b1-3)Gal(b1-4)GlcNAc(b1-3)Gal(b1-4)GlcNAc(b1-3)Gal(b1-4)GlcNAc(b1-2)Man(a1-6)]Man(b1-4)GlcNAc(b1-4)GlcNAc
# Outline: as §1
# [23] = target: Gal(b1-4)GlcNAc(b1-3)Gal(b1-4)GlcNAc(b1-3)GalNAc
# Outline: as §1
# [24] = target: Gal(b1-4)GlcNAc(b1-3)Gal(b1-4)GlcNAc(b1-3)[Gal(b1-4)GlcNAc(b1-3)Gal(b1-4)GlcNAc(b1-6)]GalNAc
# Outline: as §1
# [25] = target: Gal(b1-4)GlcNAc(b1-3)Gal(b1-4)GlcNAc(b1-6)[Gal(b1-3)]GalNAc
# Outline: as §1
# [26] = target: Gal(b1-4)GlcNAc(b1-3)Gal(b1-4)[Fuc(a1-3)]GlcNAc(b1-3)Gal(b1-4)[Fuc(a1-3)]GlcNAc
# Outline: as §1
# [27] = target: Gal(b1-4)GlcNAc(b1-3)GalNAc
# Outline: as §1
# [28] = target: Gal(b1-4)GlcNAc(b1-3)[Fuc(a1-3)GlcNAc(b1-6)]Gal(b1-4)Glc
# Outline: as §1
# [29] = target: Gal(b1-4)GlcNAc(b1-3)[Gal(b1-4)GlcNAc(b1-6)]Gal(b1-4)GlcNAc
# Outline: as §1
# [30] = target: Gal(b1-4)GlcNAc(b1-3)[GlcNAc(b1-6)]Gal(b1-4)GlcNAc
# Outline: as §1
# [31] = target: Gal(b1-4)GlcNAc(b1-6)Gal(b1-4)GlcNAc
# Outline: as §1
# [32] = target: Gal(b1-4)GlcNAc(b1-6)GalNAc
# Outline: as §1
# [33] = target: Gal(b1-4)GlcNAc(b1-6)[Gal(b1-3)]GalNAc
# Outline: as §1
# [34] = target: Gal(b1-4)GlcNAc(b1-6)[Gal(b1-4)GlcNAc(b1-3)]GalNAc
# Outline: as §1
# [35] = target: Gal(b1-4)GlcNAc6P
# Outline: as §1
# [36] = target: Gal(b1-6)Gal
# Outline: as §1
# [37] = target: Gal3S(b1-3)GalNAc
# Outline: as §1
# [38] = target: Gal3S(b1-3)GlcNAc
# Outline: as §1
binder,measurement,setting,value
"SSP1 (Sclerotinia sclerotiorum), XP_001584968 (protein) MGSSHHHHHHSSGLVPRGSHMSLLTTELACTSAPDQVLHLFFQDGQNILEARSPDGGNVWTTQDTIIAKDGDYNGSSMTCYYVDKDANFDNQPSIHLLYMNKDKQLTEKVKRMKGDNPIWEDAKVPDEVRKGPEQYSKLTSGSFNQGTGWNPNGSQWAYFSASKDGKMGIVEIRRTPKDPWHTETILEEKWGDELPGTALACVIGNGKIRVFLQHHDYSIILYENQNNTWHDRGTFIPKDKVQATTPLACTMTKDGSVHLFYVSKSNKIIHCTDGKKEEELINFFPGSKLGATSVENKITLFFRNLNPVNEVGTLENENGSWKHGTTVIPA",glycan array binding signal (z-score),[1],-0.531
same,glycan array binding signal (z-score),[2],-0.67
same,glycan array binding signal (z-score),[3],0.197
same,glycan array binding signal (z-score),[4],-0.472
same,glycan array binding signal (z-score),[5],-0.368
same,glycan array binding signal (z-score),[6],-0.248
same,glycan array binding signal (z-score),[7],0.171
same,glycan array binding signal (z-score),[8],8.48
same,glycan array binding signal (z-score),[9],0.322
same,glycan array binding signal (z-score),[10],0.515
same,glycan array binding signal (z-score),[11],1.26
same,glycan array binding signal (z-score),[12],-0.449
same,glycan array binding signal (z-score),[13],0.651
same,glycan array binding signal (z-score),[14],0.491
same,glycan array binding signal (z-score),[15],0.566
same,glycan array binding signal (z-score),[16],-0.108
same,glycan array binding signal (z-score),[17],0.184
same,glycan array binding signal (z-score),[18],0.38
same,glycan array binding signal (z-score),[19],0.117
same,glycan array binding signal (z-score),[20],0.876
same,glycan array binding signal (z-score),[21],0.477
same,glycan array binding signal (z-score),[22],0.318
same,glycan array binding signal (z-score),[23],-0.217
same,glycan array binding signal (z-score),[24],-0.003
same,glycan array binding signal (z-score),[25],0.557
same,glycan array binding signal (z-score),[26],-0.435
same,glycan array binding signal (z-score),[27],-0.369
same,glycan array binding signal (z-score),[28],-0.131
same,glycan array binding signal (z-score),[29],-0.389
same,glycan array binding signal (z-score),[30],-0.737
same,glycan array binding signal (z-score),[31],-0.146
same,glycan array binding signal (z-score),[32],0.221
same,glycan array binding signal (z-score),[33],-0.405
same,glycan array binding signal (z-score),[34],0.072
same,glycan array binding signal (z-score),[35],-0.463
same,glycan array binding signal (z-score),[36],0.623
same,glycan array binding signal (z-score),[37],-0.655
same,glycan array binding signal (z-score),[38],-0.512
